Assay results published in PubChem BioAssay AID2147 (National Center for Advancing Translational Sciences (NCATS), 2009).
About 3,600 (1.6%) of roughly 230,000 compounds were called active. The inconclusive results got no clear call from the source; some entries with a clear call stand among them for comparison. Calls come from the whole dose curve; as a rule, active = well fitted inhibition curve with a large enough effect (not every such curve was filed as active); inconclusive = small, poorly fitted or top-dose-only effect, or another doubt; inactive = no such curve, though single readings can be large or run the other way. Potencies of inconclusive entries are doubtful fits and often do not repeat. Some structures have more than one record in an assay (separate samples or runs), and their calls can disagree.

molecular target: Lysine-specific demethylase 4E (Homo sapiens) (UniProt B2RXH2); assay: qHTS Assay for Inhibitors of Human Jumonji Domain Containing 2E (JMJD2E); conditions: JMJD2E catalytic domain, FDH-coupled NADH fluorescence (FDH is formaldehyde dehydrogenase); series mostly up to 57.1 µM
UniProt B2RXH2, sequence (B2RXH2 whole entry, looked up, the tested form may be a part): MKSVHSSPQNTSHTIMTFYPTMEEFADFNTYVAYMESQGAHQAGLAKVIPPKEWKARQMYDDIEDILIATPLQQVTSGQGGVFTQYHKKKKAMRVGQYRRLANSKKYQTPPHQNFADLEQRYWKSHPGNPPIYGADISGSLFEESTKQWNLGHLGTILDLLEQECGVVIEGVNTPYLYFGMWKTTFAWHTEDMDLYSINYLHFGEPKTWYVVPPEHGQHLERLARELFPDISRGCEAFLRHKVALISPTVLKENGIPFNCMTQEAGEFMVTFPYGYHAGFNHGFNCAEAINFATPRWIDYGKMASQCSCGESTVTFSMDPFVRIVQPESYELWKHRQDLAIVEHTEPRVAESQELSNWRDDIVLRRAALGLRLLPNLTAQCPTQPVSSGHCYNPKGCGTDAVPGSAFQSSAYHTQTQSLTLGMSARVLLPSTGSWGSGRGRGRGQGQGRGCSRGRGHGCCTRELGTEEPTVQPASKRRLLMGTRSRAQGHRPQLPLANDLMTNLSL
Note: nearly all actives have a fitted effect of over 50% in size.
Potency is the fitted concentration of half-maximal effect; tags give direction and shape of the fitted curve.

Q: How did the Potency turn out when `c1ccc(CCNc2ccc3nncn3n2)cc1` was run?
A: inconclusive: 28.2 µM [inhibitor, single point]

Q: With `O=C(CSc1nnc(-c2ccncc2)n1CC1CCCO1)Nc1cccc(O)c1` (stereo not given) as the molecule, how does the Potency read?
A: inactive

Q: For `CC1CN(CCOc2ccccc2[N+](=O)[O-])CC(C)O1` (stereo not given), which Potency is on record?
A: inconclusive: 28.2 µM [inhibitor, single point]

Q: For `O=C(N/N=C/C=C/c1ccco1)c1cccs1`, which Potency is on record?
A: inconclusive: 31.6 µM [inhibitor, single point]

Q: How did the Potency turn out when `CN(C)c1ccc(-c2cncnc2NCc2cccs2)cc1` was run?
A: inconclusive: 28.2 µM [inhibitor, partial curve]

Q: With `COc1cccc(CNC(=O)CSc2ccc(-c3ccccn3)nn2)c1` as the molecule, how does the Potency read?
A: inactive

Q: `CCc1ccc(-c2cc(C(=O)NCCCn3ccnc3)c3ccccc3n2)s1` was tested. Which Potency did it give?
A: inconclusive: 28.2 µM [inhibitor, partial curve]

Q: How did the Potency turn out when `CCC(=O)NC(=S)Nc1ccc(NC(=S)NC(=O)c2ccccc2)cc1` was run?
A: inactive

Q: `Cc1onc(-c2ccccc2)c1C(=O)NC(=S)NNC(=O)c1ccccc1O` was tested. Which Potency did it give?
A: active: 17.8 µM

Q: Which Potency does the source give for `CCOC(=O)CSc1ccc2nnc(CCNS(=O)(=O)c3ccc(C)cc3)n2n1` here?
A: inconclusive: 25.1 µM [inhibitor, single point]

Q: `CCOC(=O)C1=C(C)NC(=O)NC1c1ccc(-c2ccccc2F)o1` (stereo not given) was tested. Which Potency did it give?
A: inactive

Q: For `CCOCCCn1cc(C(=O)c2cc(Br)ccc2O)cc(C#N)c1=O`, which Potency is on record?
A: inconclusive: 39.8 µM [inhibitor, single point]

Q: `O=C(O)Cn1c(O)c(C=Nc2ccccc2)sc1=S` was tested. Which Potency did it give?
A: inactive

Q: How did the Potency turn out when `COCCNC(=O)c1ccc(CS(=O)(=O)c2ccc(C)cc2)o1` was run?
A: inactive

Q: `O=C(NCCCN1CCOCC1)c1ccc2c(=O)n(CCc3ccccc3)c(=O)[nH]c2c1` was tested. Which Potency did it give?
A: inconclusive: 39.8 µM [inhibitor, single point]

Q: With `CN(C)CCN(Cc1ccccc1)c1ccccn1` as the molecule, how does the Potency read?
A: active: 31.6 µM

Q: Which Potency does the source give for `CCOC(=O)CSc1ccc(-c2nc3cc(C)c(C)cc3[nH]2)cn1` here?
A: inconclusive: 35.5 µM [inhibitor, partial curve]

Q: Which Potency does the source give for `CCCCC(CCCC)=N/N=C/c1c(O)n(CC)c2cc(C3=NNC(=O)CC3)ccc12` here?
A: inconclusive: 28.2 µM [inhibitor, single point]

Q: How did the Potency turn out when `Cn1c(SCC(=O)Nc2ccccc2)nnc1-c1ccc(NC(=O)CCc2ccccc2)cc1` was run?
A: inactive

Q: With `CCCS(=O)(=O)N1CCN(CC2CC3C=CC2C3)CC1` (stereo not given) as the molecule, how does the Potency read?
A: inconclusive: 35.5 µM [inhibitor, single point]

Q: With `O=C(CCc1ccccc1)NC(NC(=S)Nc1cccc(Cl)c1)C(Cl)(Cl)Cl` (stereo not given) as the molecule, how does the Potency read?
A: inactive

Q: How did the Potency turn out when `O=C(COc1ccccc1)NNC(=S)NC(=O)c1ccccc1` was run?
A: inactive

Q: Which Potency does the source give for `O=C(COC(=O)/C=C/c1ccco1)NCc1ccccc1` here?
A: inactive

Q: For `C=CCOC(=O)C1=C[C@@H](c2ccc3c(c2)OCO3)C[C@@H](OCc2ccc(CO)cc2)O1`, which Potency is on record?
A: inconclusive: 31.6 µM [inhibitor, single point]

Q: Which Potency does the source give for `COc1ccc(C2=NN(C(=O)CSc3nc4ncc(Cl)cc4[nH]3)C(c3ccco3)C2)cc1` (stereo not given) here?
A: inconclusive: 22.4 µM [inhibitor, single point]

Q: For `Cc1ccc(C(C)C)cc1S(=O)(=O)NCc1cccnc1`, which Potency is on record?
A: inactive

Q: `N#CCOC(=O)c1c2c(nc3ccccc13)CCC2` was tested. Which Potency did it give?
A: inconclusive: 28.2 µM [inhibitor, partial curve]

Q: With `O=C(CN1CCN(c2ccccc2O)CC1)Nc1cccnc1Cl` as the molecule, how does the Potency read?
A: inactive

Q: How did the Potency turn out when `COc1cc(/C=C/C(=O)OCC(=O)N2CCN(C(=O)c3ccco3)CC2)ccc1O` was run?
A: inconclusive: 31.6 µM [inhibitor, single point]

Q: `CCOC(=O)c1[nH]c2ccc(OC)cc2c1NC(=O)N1CCOCC1` was tested. Which Potency did it give?
A: inconclusive: 31.6 µM [inhibitor, partial curve]

Q: `O=C(c1c(Cl)cccc1Cl)N1CCN(c2ccccn2)CC1` was tested. Which Potency did it give?
A: inconclusive: 39.8 µM [inhibitor, single point]

Q: How did the Potency turn out when `O=C(O/N=C1\CCCCC1c1ccc([N+](=O)[O-])cc1[N+](=O)[O-])c1c(F)cccc1F` (stereo not given) was run?
A: inconclusive: 31.6 µM [inhibitor, single point]

Q: `O=C(CN1C(=O)COc2ccc(S(=O)(=O)N3CCOCC3)cc21)NCc1ccccn1` was tested. Which Potency did it give?
A: inconclusive: 39.8 µM [inhibitor, single point]

Q: How did the Potency turn out when `O=C(COC(=O)c1n[nH]c2ccccc12)Nc1cccc(S(=O)(=O)N2CCOCC2)c1` was run?
A: inconclusive: 39.8 µM [inhibitor, single point]

Q: With `CN1CCN(Cc2cc(COCc3ccccc3)c3cccnc3c2O)CC1` as the molecule, how does the Potency read?
A: active: 8.91 µM

Q: For `Cc1cc(N2CCC(N(C)C3CCCC3)CC2)nc2cc(O)ccc12`, which Potency is on record?
A: inconclusive: 28.2 µM [inhibitor, partial curve]

Q: `Cc1cc2cc(CNS(=O)(=O)c3ccc4ccccc4c3)ccc2n1C` was tested. Which Potency did it give?
A: inactive

Q: How did the Potency turn out when `Cc1cc(NCc2ccccc2)nc(-c2ccccc2O)n1` was run?
A: inconclusive: 28.2 µM [inhibitor, partial curve]

Q: For `C/C(=N\NC(=O)COc1cc(C)cc(C)c1)c1ccc(N2CCOCC2)cc1`, which Potency is on record?
A: inconclusive: 39.8 µM [inhibitor, single point]

Q: How did the Potency turn out when `CCNC(=S)NNC(=O)c1cccn(Cc2ccc(Cl)cc2)c1=O` was run?
A: inconclusive: 39.8 µM [inhibitor, single point]

Q: How did the Potency turn out when `C=CCn1c(COc2cccc3cccnc23)nnc1SCC(=O)OC` was run?
A: inconclusive: 35.5 µM [inhibitor, single point]

Q: `CCCn1c(=N)c(C(=O)NCC2CCCO2)cc2c(=O)n3cccc(C)c3nc21` (stereo not given) was tested. Which Potency did it give?
A: inconclusive: 3.98 µM [inhibitor, full curve]

Q: Which Potency does the source give for `CCCCc1ccc(C2C3=C(CC(C)(C)CC3=O)NC3=C2C(=O)c2ccccc23)cc1` (stereo not given) here?
A: inactive

Q: With `C[C@@H](C(=O)NCCc1c[nH]c2ccccc12)[C@H]1C[C@]1(C)[C@H](NC(=O)OCc1ccccc1)c1ccccc1` as the molecule, how does the Potency read?
A: inactive

Q: For `COC(=O)c1[nH]c2cccc(OC)c2c1NC(=O)CN1CCC(C(N)=O)(N2CCCCC2)CC1`, which Potency is on record?
A: inconclusive: 25.1 µM [inhibitor, partial curve]

Q: Which Potency does the source give for `NC(=S)Nc1cccc2cc3ccccc3cc12` here?
A: inconclusive: 31.6 µM [inhibitor, single point]

Q: For `CCOc1ccccc1CNC(=O)c1cn(C)c(=O)c2c1c1ccccc1n2C`, which Potency is on record?
A: inconclusive: 28.2 µM [inhibitor, partial curve]

Q: `COCCn1c(=NC(=O)c2ccc3c(c2)OCCO3)sc2cc(S(N)(=O)=O)ccc21` was tested. Which Potency did it give?
A: inconclusive: 35.5 µM [inhibitor, partial curve]

Q: With `OC(COc1ccccc1)CN1CCCC1` (stereo not given) as the molecule, how does the Potency read?
A: inconclusive: 28.2 µM [inhibitor, single point]

Q: `COc1ccccc1CNc1ccc(N2CCOCC2)c(C(=O)O)c1` was tested. Which Potency did it give?
A: inconclusive: 39.8 µM [inhibitor, single point]

Q: With `CCN=c1scc(-c2ccco2)n1/N=C/c1ccc(OC)c(O)c1` as the molecule, how does the Potency read?
A: inactive

Q: For `COc1ccccc1CN1C(=O)c2cccc3cccc(c23)C1=O`, which Potency is on record?
A: inconclusive: 39.8 µM [inhibitor, single point]

Q: For `CCNC(=O)CCS(=O)(=O)c1ccc2ccccc2c1`, which Potency is on record?
A: inconclusive: 35.5 µM [inhibitor, single point]

Q: With `COc1cc2c3c(c1)c(N=NC(N)=S)c(O)n3C(C)(C)C=C2C` as the molecule, how does the Potency read?
A: inactive

Q: `COc1cc2c(cc1OC)-c1cc3cc(OC)c(OC)cc3c(=O)n1CC2` was tested. Which Potency did it give?
A: inconclusive: 28.2 µM [inhibitor, partial curve]

Q: For `COc1ccccc1/C=C/C=N/NC(=O)c1cc(-c2ccco2)[nH]n1`, which Potency is on record?
A: inconclusive: 31.6 µM [inhibitor, single point]

Q: Which Potency does the source give for `CC(=O)n1cc([C@@H]2C=C(C(=O)O)O[C@H](OCc3ccc(CO)cc3)C2)c2ccccc21` here?
A: inconclusive: 25.1 µM [inhibitor, single point]

Q: With `CCC(CC)C1C(C#N)=C(N)SC(N)=C1C#N` as the molecule, how does the Potency read?
A: inactive

Q: Which Potency does the source give for `O=C(CSc1ccc(-c2ccco2)nn1)NC1CCCCC1` here?
A: inconclusive: 25.1 µM [inhibitor, single point]

Q: `COc1cc2c(cc1OC)C(c1ccccc1)CC2=O` (stereo not given) was tested. Which Potency did it give?
A: inconclusive: 35.5 µM [inhibitor, single point]

Q: Which Potency does the source give for `CC(=O)Nc1ccc(Nc2c([N+](=O)[O-])c(=O)n(-c3ccccc3)c3ccccc23)cc1` here?
A: inactive

Q: Which Potency does the source give for `CCN1CCCC1Cn1cnc2c([nH]c3ccc(C)cc32)c1=O` (stereo not given) here?
A: inconclusive: 31.6 µM [inhibitor, partial curve]

Q: With `CCn1c(=O)c(C(=O)NCc2ccc(OC)cc2)c(O)c2ccccc21` as the molecule, how does the Potency read?
A: inconclusive: 28.2 µM [inhibitor, single point]

Q: With `CCC(c1nnnn1CCOC)N(Cc1cc2cc(C)c(C)cc2[nH]c1=O)CC1CCCO1` (stereo not given) as the molecule, how does the Potency read?
A: inconclusive: 39.8 µM [inhibitor, single point]

Q: `CCOc1ccc2[nH]c(=O)c(CN(CC3CCCN3CC)C(=O)NCc3ccccc3)cc2c1` (stereo not given) was tested. Which Potency did it give?
A: inconclusive: 28.2 µM [inhibitor, partial curve]

Q: How did the Potency turn out when `COC(=O)c1cc(NC(=O)Cn2c(=O)cnc3ccccc32)cc(C(=O)OC)c1` was run?
A: inactive

Q: `O=C(OCC(=O)c1c[nH]c2ccccc12)c1cc(Br)ccc1O` was tested. Which Potency did it give?
A: inconclusive: 25.1 µM [inhibitor, partial curve]

Q: For `O=C(NCc1cccs1)C1CCCN(S(=O)(=O)c2cccs2)C1` (stereo not given), which Potency is on record?
A: inconclusive: 39.8 µM [inhibitor, single point]

Q: For `CCN1CCN(C(=O)C2CCN(Cc3cc(Cl)ccc3O)CC2)CC1`, which Potency is on record?
A: inconclusive: 31.6 µM [inhibitor, single point]

Q: How did the Potency turn out when `CCC(=O)N1CCN(c2nc(-c3ccccc3)c3c(c2C#N)CCCC3)CC1` was run?
A: inconclusive: 28.2 µM [inhibitor, partial curve]
